Measurements as given in US20050106730A1, “Compositions and methods utilizing stable reporter cell lines for detection of pathway-specific signal transduction” (priority 1999, published 2005).

System: MAPK pathway converging on Elk1 (GAL4-Elk1 fusion)
Experiment: Luciferase reporter assay in RCLH-Elk1 stable reporter cells treated with extracellular stimuli
Conditions: PMA 60 ng/ml, 5 hours

## CCCCCCCCCCCCCC(=O)O[C@@H]1[C@@H](C)[C@@]2(O)[C@@H](C=C(CO)C[C@]3(O)C(=O)C(C)=C[C@@H]23)[C@@H]2C(C)(C)[C@]12OC(C)=O [PMA, phorbol 12-myristate 13-acetate]
  Luciferase expression relative to untreated control: ~50 fold
